This is an account of results in ChEMBL document CHEMBL4888484, “Replenishing the malaria drug discovery pipeline: Screening and hit evaluation of the MMV Hit Generation Library 1 (HGL1) against asexual blood stage Plasmodium falciparum ,using a nano luciferase reporter read-out” (2022).

In general, % Inhibition refers to the relative decrease from the control value, in per cent.

Screen size: about 150,000 compounds; about 540 (0.36%) showed an effect of 50% or more. This is one part of the list.

For the experiment, the system named is Plasmodium falciparum. The experiment is described as follows: Primary screen in NF54 nanoGlo assay, in single point, at 2uM, 72h; a lower Z score goes with more inhibition. Type of experiment: functional, Erythrocyte. The conditions noted are these: timepoint 72 hour.
With `CN(CC#N)CCCc1ccc(Cl)cc1`, the “% Inhibition” value is on record as -7% and the Z score worked out at 1.04.
Regarding `O=C1[C@H]2CN(Cc3ccccc3Cl)C[C@H]2C(=O)N1Cc1ccc2c(c1)OCO2`, the “% Inhibition” value was -10% and the Z score is 1.21.
For `CC(C)[C@H](NS(=O)(=O)N1CCN(C)CC1)c1ccccn1`, the “% Inhibition” value was 0% and the Z score is given as -0.09.
In the case of `Cc1cc(NC(=O)C(C)N2CCCCC2Cn2cncn2)on1` (stereo unspecified), the “% Inhibition” value is reported as 5% and the Z score was -0.56.
On to `Cc1ccccc1C(CC(=O)NCc1ccccc1)c1cnc2n1CCCC2C` (stereo unspecified), for which the “% Inhibition” value is -2% and the Z score came out at 0.3.
In the same order, the values of `CCOC(=O)CC1(N(C)C(=O)c2cc(C)n[nH]2)CCCCC1` are -11% and 2.22.
In the case of `FC(F)(F)c1ccc(-c2nc(CN(Cc3ccccc3)Cc3ccccc3)cs2)cc1`, the “% Inhibition” value amounted to 0% and the Z score worked out at 0.08.
The matching figures for `Cn1c(C(F)(F)F)nn(C2CCN(S(=O)(=O)Cc3cccc(Cl)c3)CC2)c1=O`: -10% and 1.09.
In the same order, the values of `CN1C(=O)N(c2cccc(C#N)c2)C(=O)C12CCCC2` are -1% and 0.12.
Regarding `O=C(c1ccc(CNS(=O)(=O)c2ccc3ccccc3c2)cc1)N1CCOCC1`, the “% Inhibition” value is given as -8% and the Z score is 0.91.
The matching figures for `CCC(=O)N1CCc2ccc(OCc3nc(C(=O)NCc4ccc(F)cc4)cs3)cc2[C@@H]1c1ccc(C)cc1`: -19% and 2.45.
On to `CCOc1ncccc1C(=O)N[C@@H](C)c1nc[nH]n1`, for which the “% Inhibition” value is on record as -11% and the Z score stood at 1.06.
On to `CCc1nnc(CNC(=O)Nc2cnn(C(C)C)c2)s1`, for which the “% Inhibition” value is reported as 0% and the Z score is given as -0.04.
Consider `COCC(=O)N[C@@H]1CN(Cc2ccc(C)o2)CC[C@@H]1CO`, for which the “% Inhibition” value is -9% and the Z score was 1.26.
The matching figures for `CCc1cc(CC(=O)N2CCCc3ccnc(N(C)C)c32)n(C)n1`: 1% and -0.18.
Consider `O=C(CCc1c[nH]c2ccccc12)Oc1ccc(F)cc1`, for which the “% Inhibition” value came out at 6% and the Z score is listed as -0.63.
As for `CCN(Cc1noc(C)n1)c1cccc(O)c1`, the “% Inhibition” value was -3% and the Z score is on record as 0.41.
In the case of `C=CCN1CCC(N[C@H](c2cccc(C(F)(F)F)c2)C2CC2)CC1`, the “% Inhibition” value is recorded as -16% and the Z score stood at 1.4.
In the case of `CCOc1c(CN(C)C(=O)c2ccc([C@H]3CCCNC3)cc2)cccc1OC`, the “% Inhibition” value was -4% and the Z score was 0.7.
`FC(F)[C@H](NCc1cn(C2CCC2)nn1)c1cccc(Cl)c1`: the “% Inhibition” value is -4% and the Z score was found to be 0.62.
Regarding `N#Cc1ccc2c(c1)CCCC2NCC1CCCS1(=O)=O` (stereo unspecified), the “% Inhibition” value is 16% and the Z score is reported as -1.68.
In the same order, the values of `Cc1nc(C(=O)N2CCN(S(C)(=O)=O)CC2)c(Cc2ccccc2)s1` are -14% and 1.77.
In the same order, the values of `Cn1ccnc1-c1ccccc1C(=O)N1CCC[C@H](CNC(=O)c2cccnc2)C1` are 7% and -0.91.
In the same order, the values of `Cc1cc(F)ccc1N1CCC[C@H](NC(=O)c2cnn(C)c2)C1=O` are -8% and 1.06.
Regarding `N#CCCN(Cc1ccc(Cl)cc1F)C[C@H]1CCOC1`, the “% Inhibition” value is reported as -17% and the Z score turned out to be 2.26.
As to `Cc1nn(C)c(C)c1OCCOCC(F)(F)F`, the “% Inhibition” value is reported as -5% and the Z score is recorded as 0.64.
As for `Cc1cc(C(=O)N2CCOC3(CCS(=O)(=O)CC3)C2)sc1C`, the “% Inhibition” value was -9% and the Z score came out at 1.28.
In the same order, the values of `CC(C)(C)OC(=O)N1CCC[C@H]1CCC(=O)NC1CC=CC1` are -1% and 0.12.
In the same order, the values of `COc1nn(C)cc1C(=O)N1CCC[C@H](Oc2cc(C)nc(C)n2)C1` are 19% and -2.56.
In the same order, the values of `Cc1ccn2c(F)c(-c3ncnn3C(C)(C)C)nc2c1` are -9% and 1.36.
Turning to `Cc1ccc(NC(=O)Cn2ccn3nc4c(c3c2=O)CCCCC4)cc1`, the “% Inhibition” value was found to be 6% and the Z score is on record as -0.83.
The matching figures for `Cn1c(CCNC(=O)[C@H](O)C2CCCCC2)n[nH]c1=O`: -11% and 1.92.
The matching figures for `CCC[C@H](NC(=O)c1ccccc1)C(=O)O`: -9% and 0.85.
The matching figures for `Cc1nc2cc(NC(=O)C(C)C)cc(C(=O)NCCN3CCNC3=O)c2n1Cc1ccccc1`: 7% and -0.76.
As to `Cc1ccc(C2=NC3(CCCC3)NC2=O)cc1`, the “% Inhibition” value was found to be 32% and the Z score is -4.13.
With `CCc1nnc([C@@H]2CN(Cc3cc(F)c(F)cc3F)CCO2)o1`, the “% Inhibition” value amounted to 2% and the Z score was -0.27.
The matching figures for `CCN(Cc1cnn(C(C)C)c1)C(=O)Cn1nnnc1N`: -4% and 0.68.
In the same order, the values of `CCN(Cc1cnn(CC)c1)C(=O)c1cccc(-c2ncccc2F)c1` are -7% and 1.31.
On to `NC(=O)c1cccc(/C=C/C2CCCCC2)n1`, for which the “% Inhibition” value is on record as -10% and the Z score is reported as 1.58.
In the same order, the values of `O=C(CCc1nnc[nH]1)NC[C@H]1CCCN1Cc1ccccc1` are -14% and 1.95.
In the same order, the values of `Cc1c[nH]c(CNC[C@]2(C)CC[C@H](C)C2(C)C)n1` are 12% and -2.09.
Take `CCn1cc(CN(C)C(=O)CCCn2cccn2)cn1`: the “% Inhibition” value is recorded as -2% and the Z score is 0.31.
On to `Cc1cccc(-c2noc(N3CCOCC3)c2CN(Cc2ccc(F)cc2)C(=O)c2ccc(F)cc2)c1`, for which the “% Inhibition” value was 12% and the Z score was -1.48.
